Assay results taken from paper PMC9911399, “Two distinct binding modes provide the RNA-binding protein RbFox with extraordinary sequence specificity”.
Changes are numbered by the printed parent chain; changes in the protein carry UniProt numbers. This is one part of the list.

T1: RBFOX1 RRM (Homo sapiens, UniProt Q9NWB1 109-208)
T1 sequence: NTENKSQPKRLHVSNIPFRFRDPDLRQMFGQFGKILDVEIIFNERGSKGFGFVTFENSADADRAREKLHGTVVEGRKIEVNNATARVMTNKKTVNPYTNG

B1: GGCACCA (DNA:RNA)
RNA: GGGAGACCGGAAUUCAGAUUGUCCGGCACCAUUAAAUCCCGUCGUAGCCACCA
DNA 1: CAATCTGAATTCCGGTCTCCC
DNA 2: TGGTGGCTACGACGGGATT
B2: GUGUCAA (DNA:RNA)
RNA: B1 RNA with G26U, C27G, A28U, C30A
DNA 1: CAATCTGAATTCCGGTCTCCC
DNA 2: TGGTGGCTACGACGGGATT
B3: CAGCAUA (DNA:RNA)
RNA: B1 RNA with G25C, G26A, C27G, A28C, C29A, C30U
DNA 1: CAATCTGAATTCCGGTCTCCC
DNA 2: TGGTGGCTACGACGGGATT
B4: GAGGUCG (DNA:RNA)
RNA: B1 RNA with G26A, C27G, A28G, C29U, A31G
DNA 1: CAATCTGAATTCCGGTCTCCC
DNA 2: TGGTGGCTACGACGGGATT
B5: UCUAUCA (DNA:RNA)
RNA: B1 RNA with G25U, G26C, C27U, C29U
DNA 1: CAATCTGAATTCCGGTCTCCC
DNA 2: TGGTGGCTACGACGGGATT
B6: UCGCGUU (DNA:RNA)
RNA: GGGAGACCGGAAUUCAGAUUGUCCUCGCGUUUUAAAUCCCGUCGUAGCCACCA
DNA 1: CAATCTGAATTCCGGTCTCCC
DNA 2: TGGTGGCTACGACGGGATT
B7: CUUUGAU (DNA:RNA)
RNA: B6 RNA with U25C, C26U, G27U, C28U, U30A
DNA 1: CAATCTGAATTCCGGTCTCCC
DNA 2: TGGTGGCTACGACGGGATT
B8: CUGUGUG (DNA:RNA)
RNA: B6 RNA with U25C, C26U, C28U, U31G
DNA 1: CAATCTGAATTCCGGTCTCCC
DNA 2: TGGTGGCTACGACGGGATT
B9: UCCUUCA (DNA:RNA)
RNA: B1 RNA with G25U, G26C, A28U, C29U
DNA 1: CAATCTGAATTCCGGTCTCCC
DNA 2: TGGTGGCTACGACGGGATT
B10: UCAAUUC (DNA:RNA)
RNA: B6 RNA with G27A, C28A, G29U, U31C
DNA 1: CAATCTGAATTCCGGTCTCCC
DNA 2: TGGTGGCTACGACGGGATT
B11: CGCUCGA (DNA:RNA)
RNA: B1 RNA with G25C, A28U, C30G
DNA 1: CAATCTGAATTCCGGTCTCCC
DNA 2: TGGTGGCTACGACGGGATT
B12: CUCAGAA (DNA:RNA)
RNA: B1 RNA with G25C, G26U, C29G, C30A
DNA 1: CAATCTGAATTCCGGTCTCCC
DNA 2: TGGTGGCTACGACGGGATT
B13: AACGUAC (DNA:RNA)
RNA: B1 RNA with G25A, G26A, A28G, C29U, C30A, A31C
DNA 1: CAATCTGAATTCCGGTCTCCC
DNA 2: TGGTGGCTACGACGGGATT
B14: ACUUGAA (DNA:RNA)
RNA: B6 RNA with U25A, G27U, C28U, U30A, U31A
DNA 1: CAATCTGAATTCCGGTCTCCC
DNA 2: TGGTGGCTACGACGGGATT
B15: GCGAUUU (DNA:RNA)
RNA: B6 RNA with U25G, C28A, G29U
DNA 1: CAATCTGAATTCCGGTCTCCC
DNA 2: TGGTGGCTACGACGGGATT
B16: CUAAUAG (DNA:RNA)
RNA: B1 RNA with G25C, G26U, C27A, C29U, C30A, A31G
DNA 1: CAATCTGAATTCCGGTCTCCC
DNA 2: TGGTGGCTACGACGGGATT
B17: GCAGAAG (DNA:RNA)
RNA: B1 RNA with G26C, C27A, A28G, C29A, C30A, A31G
DNA 1: CAATCTGAATTCCGGTCTCCC
DNA 2: TGGTGGCTACGACGGGATT
B18: CAGUUUU (DNA:RNA)
RNA: B6 RNA with U25C, C26A, C28U, G29U
DNA 1: CAATCTGAATTCCGGTCTCCC
DNA 2: TGGTGGCTACGACGGGATT
B19: GGUUUAG (DNA:RNA)
RNA: B1 RNA with C27U, A28U, C29U, C30A, A31G
DNA 1: CAATCTGAATTCCGGTCTCCC
DNA 2: TGGTGGCTACGACGGGATT
B20: GGAUUCC (DNA:RNA)
RNA: B1 RNA with C27A, A28U, C29U, A31C
DNA 1: CAATCTGAATTCCGGTCTCCC
DNA 2: TGGTGGCTACGACGGGATT
B21: GUAGUCG (DNA:RNA)
RNA: B1 RNA with G26U, C27A, A28G, C29U, A31G
DNA 1: CAATCTGAATTCCGGTCTCCC
DNA 2: TGGTGGCTACGACGGGATT
B22: UCUUAUC (DNA:RNA)
RNA: B6 RNA with G27U, C28U, G29A, U31C
DNA 1: CAATCTGAATTCCGGTCTCCC
DNA 2: TGGTGGCTACGACGGGATT
B23: CCAACUG (DNA:RNA)
RNA: B1 RNA with G25C, G26C, C27A, C30U, A31G
DNA 1: CAATCTGAATTCCGGTCTCCC
DNA 2: TGGTGGCTACGACGGGATT
B24: UUACAAU (DNA:RNA)
RNA: B6 RNA with C26U, G27A, G29A, U30A
DNA 1: CAATCTGAATTCCGGTCTCCC
DNA 2: TGGTGGCTACGACGGGATT
B25: GGAAUCA (DNA:RNA)
RNA: B1 RNA with C27A, C29U
DNA 1: CAATCTGAATTCCGGTCTCCC
DNA 2: TGGTGGCTACGACGGGATT
B26: CUCGGCA (DNA:RNA)
RNA: B1 RNA with G25C, G26U, A28G, C29G
DNA 1: CAATCTGAATTCCGGTCTCCC
DNA 2: TGGTGGCTACGACGGGATT
B27: CUCGCUU (DNA:RNA)
RNA: B1 RNA with G25C, G26U, A28G, C30U, A31U
DNA 1: CAATCTGAATTCCGGTCTCCC
DNA 2: TGGTGGCTACGACGGGATT
B28: CGUUUAU (DNA:RNA)
RNA: B1 RNA with G25C, C27U, A28U, C29U, C30A, A31U
DNA 1: CAATCTGAATTCCGGTCTCCC
DNA 2: TGGTGGCTACGACGGGATT
B29: ACCAACU (DNA:RNA)
RNA: B1 RNA with G25A, G26C, C29A, A31U
DNA 1: CAATCTGAATTCCGGTCTCCC
DNA 2: TGGTGGCTACGACGGGATT
B30: GUCUUAC (DNA:RNA)
RNA: B1 RNA with G26U, A28U, C29U, C30A, A31C
DNA 1: CAATCTGAATTCCGGTCTCCC
DNA 2: TGGTGGCTACGACGGGATT
B31: UUCCGGC (DNA:RNA)
RNA: B6 RNA with C26U, G27C, U30G, U31C
DNA 1: CAATCTGAATTCCGGTCTCCC
DNA 2: TGGTGGCTACGACGGGATT

Each binder was assayed against T1, RBFOX1 RRM (assay: EMSA; HiTS-Eq, 1 nM pool, 10 min; buffer printed only for the single-RNA assays: 10 mM Tris pH 7.5, 150 mM NaCl, 3.4 mM EDTA, 0.001% NP-40, 30 C). Details: tags: His6 N-terminal (pET28a); label: 5' 32P.
Summary of the method: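 A pool of RNA with 7 randomized nucleotides, 5′-radiolabelled and with DNA-annealed flanks, was equilibrated at 1 nM for 10 min in 50 µL with purified RbFox RRM, wild type or mutant, across increasing protein concentrations. Free RNA was separated by 8% native PAGE, excised, reverse-transcribed, barcoded by PCR and sequenced. Relative association constants were obtained from read-count changes of each RNA species versus the control reaction and normalised to the cognate motif.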

Binder | binding signal
B1 | 0.00552 KA relative to UGCAUGU
B2 | 0.00628 KA relative to UGCAUGU
B3 | 0.00331 KA relative to UGCAUGU
B4 | 0.0183 KA relative to UGCAUGU
B5 | 0.00253 KA relative to UGCAUGU
B6 | 0.018 KA relative to UGCAUGU
B7 | 0.0135 KA relative to UGCAUGU
B8 | 0.027 KA relative to UGCAUGU
B9 | 0.00389 KA relative to UGCAUGU
B10 | 0.00427 KA relative to UGCAUGU
B11 | 0.0174 KA relative to UGCAUGU
B12 | 0.00496 KA relative to UGCAUGU
B13 | 0.00417 KA relative to UGCAUGU
B14 | 0.0101 KA relative to UGCAUGU
B15 | 0.0136 KA relative to UGCAUGU
B16 | 0.00505 KA relative to UGCAUGU

Binder | binding signal
B17 | 0.0129 KA relative to UGCAUGU
B18 | 0.006 KA relative to UGCAUGU
B19 | 0.0117 KA relative to UGCAUGU
B20 | 0.00818 KA relative to UGCAUGU
B21 | 0.0126 KA relative to UGCAUGU
B22 | 0.00318 KA relative to UGCAUGU
B23 | 0.00702 KA relative to UGCAUGU
B24 | 0.00107 KA relative to UGCAUGU
B25 | 0.0111 KA relative to UGCAUGU
B26 | 0.0189 KA relative to UGCAUGU
B27 | 0.00812 KA relative to UGCAUGU
B28 | 0.00365 KA relative to UGCAUGU
B29 | 0.000269 KA relative to UGCAUGU
B30 | 0.00926 KA relative to UGCAUGU
B31 | 0.00629 KA relative to UGCAUGU
